This is one part of the list. Sequences were assembled here from the parent chain. Values near 0.05 are background.

Data on ten variants can be found in the supplement of paper PMC12217912.

The chains are these.
B1: TEV protease; numbered along this chain (parent)
chain: MGESLFKGPRDYNPISSSICHLTNESDGHTTSLYGIGFGPFIITNKHLFRRNNGTLVVQSLHGVFKVKDTTTLQQHLVDGRDMIIIRMPKDFPPFPQKLKFREPQREERICLVTTNFQTKSMSSMVSDTSCTFPSGDGIFWKHWIQTKDGQCGSPLVSTRDGFIVGIHSASNFTNTNNYFTSVPKNFMELLTNQEAQQWVSGWRLNADSVLWGGHKVFMVKPEEPFQPVKEATQL

The variants in this test derive from B1. Nature of the test: raw area under fraction-flipped curve 0-4 h after induction (AUC4h, not background-subtracted), DNA-recorder readout of cleavage of the substrate (dimensionless); higher = more cleavage of the substrate by the protease variant. As to conditions: temperature: 34 °C; time window: 0-4 h after rhamnose induction.
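Further: Bxb1 expression induced with 0.2% (w/v) L-rhamnose at OD600 near 0.5, cultures sampled hourly, flipped fraction per protease–substrate barcode pair counted by paired-end Illumina sequencing.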

Take MGESLFKGPRDYNPISSSICHLTNESDGHTTSLYGIGFGPFIITNKHLFRRNNGTLVVQSLHGVFKVKDTTTLQQHLVDGRDMIIIRMPKDFPPFPQKLKFREPQREERICLVTTNFQTKSMSSMVSDTSCTFPSGDGIFWKHWIQTKDGQCGSPLVITRDGFIVGIHSASNFTNTNNYFTSVPKNFMELLTNQEAQQWVSGWRLNADSVLWGGHKVFMVKPEEPFQPVKEATQL [S158I]: the “area with substrate ECLYFQS” value was 0.0345, the “area with substrate EILYFQS” value is 0.0492, the “area with substrate ELLYFQS” value was 0.0409 and the “area with substrate EPLYFQS” value came out at 0.0094. The “area with substrate EQLYFQS” value is 0.0498, the “area with substrate ESLYFQS” value came to 0.0839 and the “area with substrate EWLYFQS” value is 0.0481.
Regarding MGESLFKGPRDYNPISSSICHLTNESDGHTTSLYGIGFGPFIITNKHLFRRNNGTLVVQSLHGVFKVKDTTTLQQHLVDGRDMIIIRMPKDFPPFPQKLKFREPQREERICLVTTNFQTKSMSSMVSDTSCTFPSGDGIFWKHWIQTKDGQCGSPLVSTPDGFIVGIHSASNFTNTNNYFTSVPKNFMELLTNQEAQQWVSGWRLNADSVLWGGHKVFMVKPEEPFQPVKEATQL [R160P], the “area with substrate ECLYFQS” value turned out to be 0.0457, the “area with substrate EELYFQS” value came out at 0.0804, the “area with substrate EHLYFQS” value was determined as 0.0891 and the “area with substrate EILYFQS” value is 0.0607. The “area with substrate ELLYFQS” value came out at 0.0431, the “area with substrate EMLYFQS” value is 0.0771, the “area with substrate EQLYFQS” value came to 0.1 and the “area with substrate ERLYFQS” value was determined as 0.0812. Further, the “area with substrate ESLYFQS” value was found to be 0.0951, the “area with substrate ETLYFQS” value is 0.0883, the “area with substrate EVLYFQS” value turned out to be 0.109 and the “area with substrate EYLYFQS” value was found to be 0.0939.
Turning to MGESLFKGPRDYNPISSSICHLTNESDGHTTSLYGIGFGPFIITNKHLFRRNNGTLVVQSLHGVFKVKDTTTLQQHLVDGRDMIIIRMPKDFPPFPQKLKFREPQREERICLVTTNFQTKSMSSMVSDTSCTFPSGDGIFWKHWIQTKDGQCGSPLVSTSDGFIVGIHSASNFTNTNNYFTSVPKNFMELLTNQEAQQWVSGWRLNADSVLWGGHKVFMVKPEEPFQPVKEATQL [R160S], the “area with substrate ECLYFQS” value was determined as 0.0922, the “area with substrate EILYFQS” value amounted to 0.122, the “area with substrate EQLYFQS” value turned out to be 0.137 and the “area with substrate EVLYFQS” value amounted to 0.0868.
Regarding MGESLFKGPRDYNPISSSICHLTNESDGHTTSLYGIGFGPFIITNKHLFRRNNGTLVVQSLHGVFKVKDTTTLQQHLVDGRDMIIIRMPKDFPPFPQKLKFREPQREERICLVTTNFQTKSMSSMVSDTSCTFPSGDGIFWKHWIQTKDGQCGSPLVSTRDGFIVIIHSASNFTNTNNYFTSVPKNFMELLTNQEAQQWVSGWRLNADSVLWGGHKVFMVKPEEPFQPVKEATQL [G166I], the “area with substrate ECLYFQS” value was 0.0413, the “area with substrate EDLYFQS” value was 0.0695, the “area with substrate EELYFQS” value was 0.0405 and the “area with substrate EFLYFQS” value was found to be 0.0573. Moreover, the “area with substrate EGLYFQS” value worked out at 0.0486, the “area with substrate EILYFQS” value came to 0.0379, the “area with substrate EKLYFQS” value was found to be 0.0218 and the “area with substrate EMLYFQS” value is 0.0473. Moreover, the “area with substrate EQLYFQS” value came to 0.0625, the “area with substrate ERLYFQS” value came out at 0.0583, the “area with substrate ESLYFQS” value was determined as 0.0539 and the “area with substrate ETLYFQS” value worked out at 0.0543. Also, the “area with substrate EVLYFQS” value is 0.0471 and the “area with substrate EYLYFQS” value was found to be 0.0619.
As to MGESLFKGPRDYNPISSSICHLTNESDGHTTSLYGIGFGPFIITNKHLFRRNNGTLVVQSLHGVFKVKDTTTLQQHLVDGRDMIIIRMPKDFPPFPQKLKFREPQREERICLVTTNFQTKSMSSMVSDTSCTFPSGDGIFWKHWIQTKDGQCGSPLVSTRDGFIVLIHSASNFTNTNNYFTSVPKNFMELLTNQEAQQWVSGWRLNADSVLWGGHKVFMVKPEEPFQPVKEATQL [G166L], the “area with substrate ECLYFQS” value is 0.0269, the “area with substrate EDLYFQS” value amounted to 0.0478, the “area with substrate EELYFQS” value turned out to be 0.0505 and the “area with substrate EGLYFQS” value was determined as 0.047. Besides, the “area with substrate EKLYFQS” value amounted to 0.039, the “area with substrate EMLYFQS” value was found to be 0.0608, the “area with substrate EQLYFQS” value turned out to be 0.0425 and the “area with substrate ESLYFQS” value turned out to be 0.0481. The “area with substrate EVLYFQS” value is 0.0518 and the “area with substrate EWLYFQS” value is 0.0409.
Regarding MGESLFKGPRDYNPISSSICHLTNESDGHTTSLYGIGFGPFIITNKHLFRRNNGTLVVQSLHGVFKVKDTTTLQQHLVDGRDMIIIRMPKDFPPFPQKLKFREPQREERICLVTTNFQTKSMSSMVSDTSCTFPSGDGIFWKHWIQTKDGQCGSPLVSTRDGFMVGIHSASNFTNTNNYFTSVPKNFMELLTNQEAQQWVSGWRLNADSVLWGGHKVFMVKPEEPFQPVKEATQL [I164M], the “area with substrate ECLYFQS” value was 0.0685, the “area with substrate EDLYFQS” value came out at 0.0736, the “area with substrate EELYFQS” value worked out at 0.0882 and the “area with substrate EFLYFQS” value turned out to be 0.0897. Moreover, the “area with substrate EGLYFQS” value amounted to 0.0743, the “area with substrate EHLYFQS” value came to 0.0614, the “area with substrate EILYFQS” value was determined as 0.0787 and the “area with substrate EKLYFQS” value worked out at 0.082. Further, the “area with substrate ELLYFQS” value is 0.0677, the “area with substrate EMLYFQS” value turned out to be 0.0736, the “area with substrate EPLYFQS” value was determined as 0.0984 and the “area with substrate EQLYFQS” value was determined as 0.0783. The “area with substrate ERLYFQS” value came to 0.0675, the “area with substrate ESLYFQS” value came to 0.0787, the “area with substrate ETLYFQS” value was 0.0908 and the “area with substrate EVLYFQS” value came out at 0.0772. Moreover, the “area with substrate EYLYFQS” value turned out to be 0.0818.
In the case of MGESLFKGPRDYNPISSSICHLTNESDGHTTSLYGIGFGPFIITNKHLFRRNNGTLVVQSLHGVFKVKDTTTLQQHLVDGRDMIIIRMPKDFPPFPQKLKFREPQREERICLVTTNFQTKSMSSMVSDTSCTFPSGDGIFWKHWIQTKDGQCGSPLVSTRDGFNVGIHSASNFTNTNNYFTSVPKNFMELLTNQEAQQWVSGWRLNADSVLWGGHKVFMVKPEEPFQPVKEATQL [I164N], the “area with substrate ECLYFQS” value was determined as 0.054, the “area with substrate EDLYFQS” value amounted to 0.0559, the “area with substrate EFLYFQS” value worked out at 0.0569 and the “area with substrate EILYFQS” value was determined as 0.0304. For the same variant, the “area with substrate ELLYFQS” value was 0.0664, the “area with substrate EPLYFQS” value is 0.0374, the “area with substrate EQLYFQS” value is 0.048 and the “area with substrate ERLYFQS” value was determined as 0.0593. The “area with substrate ESLYFQS” value came to 0.0447.
For MGESLFKGPRDYNPISSSICHLTNESDGHTTSLYGIGFGPFIITNKHLFRRNNGTLVVQSLHGVFKVKDTTTLQQHLVDGRDMIIIRMPKDFPPFPQKLKFREPQREERICLVTTNFQTKSMSSMVSDTSCTFPSGDGIFWKHWIQTKDGQCGSPLVSTRDGFIVGIHSASEFTNTNNYFTSVPKNFMELLTNQEAQQWVSGWRLNADSVLWGGHKVFMVKPEEPFQPVKEATQL [N172E], the “area with substrate ECLYFQS” value turned out to be 0.0738, the “area with substrate EILYFQS” value was determined as 0.0634, the “area with substrate EQLYFQS” value was found to be 0.055 and the “area with substrate ESLYFQS” value worked out at 0.0678. The “area with substrate EVLYFQS” value was determined as 0.0632.
Regarding MGESLFKGPRDYNPISSSICHLTNESDGHTTSLYGIGFGPFIITNKHLFRRNNGTLVVQSLHGVFKVKDTTTLQQHLVDGRDMIIIRMPKDFPPFPQKLKFREPQREERICLVTTNFQTKSMSSMVSDTSCTFPSGDGIFWKHWIQTKDGQCGSPLVSTRDGFIGGIHSASNFTNTNNYFTSVPKNFMELLTNQEAQQWVSGWRLNADSVLWGGHKVFMVKPEEPFQPVKEATQL [V165G], the “area with substrate ECLYFQS” value is 0.0698, the “area with substrate EELYFQS” value was determined as 0.0527, the “area with substrate EGLYFQS” value was found to be 0.0696 and the “area with substrate EILYFQS” value was found to be 0.0506. Further, the “area with substrate EKLYFQS” value was determined as 0.0597, the “area with substrate ELLYFQS” value was 0.0546, the “area with substrate EMLYFQS” value was found to be 0.0538 and the “area with substrate EPLYFQS” value worked out at 0.0663. Also, the “area with substrate EQLYFQS” value was found to be 0.0529, the “area with substrate ERLYFQS” value amounted to 0.0525, the “area with substrate ESLYFQS” value stood at 0.0471 and the “area with substrate EVLYFQS” value is 0.0593.
For the variant MGESLFKGPRDYNPISSSICHLTNESDGHTTSLYGIGFGPFIITNKHLFRRNNGTLVVQSLHGVFKVKDTTTLQQHLVDGRDMIIIRMPKDFPPFPQKLKFREPQREERICLVTTNFQTKSMSSMVSDTSCTFPSGDGIFWKHWIQTKDGQCGSPLVSTRDGFIAGIHSASNFTNTNNYFTSVPKNFMELLTNQEAQQWVSGWRLNADSVLWGGHKVFMVKPEEPFQPVKEATQL [V165A], the “area with substrate ECLYFQS” value was 0.0569, the “area with substrate EDLYFQS” value is 0.0458, the “area with substrate EGLYFQS” value turned out to be 0.0449 and the “area with substrate EHLYFQS” value was determined as 0.0313. Also, the “area with substrate EKLYFQS” value was found to be 0.0816, the “area with substrate EMLYFQS” value is 0.0473, the “area with substrate ESLYFQS” value turned out to be 0.0551 and the “area with substrate EVLYFQS” value came to 0.0249. For the same variant, the “area with substrate EWLYFQS” value amounted to 0.0698.
